Data published in PubChem BioAssay AID236 (DTP/NCI, 2004).
Toxic doses and inconclusive results are not listed. For part of its entries the source gives two or more results. The list is limited to them. The source may hold further records. The values listed for one entry are repeated measurements in other runs, samples, wells, individuals or studies.

Tested on: AK4 lymphoid leukemia ip, C3AKF1 mice, survival
Test: NCI In Vivo Anticancer Drug Screen. Data for tumor model AK4 Lymphoid Leukemia (intraperitoneal) in C3AKF1 (CHKRF1) mice
Conditions: endpoint: median survival time, schedule: Q01DX010 (ip), higher = longer survival
Method: The antitumor activity of compounds was measured in mice bearing transplantable tumors. Survival or tumor size were measured and the results are expressed as the measurement made in the treated group (T) divided by the measurement made in the vehicle treated control group (C). The tumor model used in this assay is AK4 Lymphoid Leukemia (intraperitoneal) in C3AKF1 (CHKRF1) mice

Which T/C (dose: 2.0 mg/kg/injection, vehicle: saline) does the source give for NC(=O)N(CCCl)N=O here?
The T/C was 118 % of control and 170 % of control.

How did the T/C (dose: 8.0 mg/kg/injection, vehicle: saline) turn out when O=C(Nc1ccc(C2=NCCN2)cc1)c1ccc(C(=O)Nc2ccc(C3=NCCN3)cc2)c([N+](=O)[O-])c1 was run?
Its T/C is 100 % of control and 150 % of control.

How did the T/C (dose: 0.19 mg/kg/injection, vehicle: other) turn out when CN(Cc1cnc2nc(N)nc(N)c2n1)c1ccc(C(=O)N[C@@H](CCC(=O)O)C(=O)O)cc1 was run?
The T/C was 110 % of control and 156 % of control.

For CC[C@]1(O)C[C@H]2CN(CCc3c([nH]c4ccccc34)[C@@](C(=O)OC)(c3cc4c(cc3OC)N(C=O)[C@H]3[C@@](O)(C(=O)OC)[C@H](OC(C)=O)[C@]5(CC)C=CCN6CC[C@]43[C@@H]65)C2)C1, which T/C (dose: 0.12 mg/kg/injection, vehicle: saline) is on record?
Its T/C is 112 % of control and 160 % of control.

How did the T/C (dose: 50.0 mg/kg/injection, vehicle: saline) turn out when CN(C)/N=N/c1nc[nH]c1C(N)=O was run?
The T/C was 116 % of control and 150 % of control.
